Drawing on the supplement of paper PMC9446081, this text covers relative growth for 61 molecules.

SMILES strings stand for the structures. Out of some 39,000 compounds screened, about 220 (0.56%) showed activity. Some of the results follow.
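Also: static incubation at 37 °C against the wild-type strain, values averaged over two biological replicates.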

The assay concerns Escherichia coli K-12 BW25113. Nature of the assay: relative growth (OD600 normalised to plate interquartile mean) (fraction); higher = less growth inhibition, active = 0.2 or less. The conditions noted are these: 50 µM; LB; incubation time: overnight (16-24 h).
Consider `CC(=O)N(C)C[C@H]1Oc2ncc(C#C[C@@H](C)O)cc2C(=O)N([C@H](C)CO)C[C@@H]1C`, for which the relative growth was inactive: 0.996. For the molecule `C[C@H]1CN([C@@H](C)CO)C(=O)c2cccc(NS(=O)(=O)c3ccccc3)c2O[C@H]1CN(C)S(=O)(=O)c1cccs1`, the relative growth is inactive: 0.977. The result for `C[C@H](CO)N1C[C@H](C)[C@@H](CN(C)Cc2ccc(Cl)c(Cl)c2)Oc2c(NS(=O)(=O)c3ccc(Cl)cc3)cccc2C1=O` reads inactive: 1; that for `CC(C)NC(=O)Nc1ccc2c(c1)C(=O)N([C@H](C)CO)C[C@H](C)[C@@H](CN(C)C(=O)Nc1ccc(C(F)(F)F)cc1)OCCCC[C@@H](C)O2`, inactive: 1.

As to `CC(C)[C@@H](O)C[C@@H](C)O[C@@H]1O[C@H](CO[C@@H]2OC[C@](O)(CO)[C@H]2O)[C@@H](O)[C@H](O)[C@H]1O`, the relative growth was inactive: 0.911. For the molecule `Cc1ccc(S(=O)(=O)Nc2ccc3c(c2)CC(=O)N([C@@H](C)CO)C[C@H](C)[C@@H](CN(C)Cc2ccc(Oc4ccccc4)cc2)O3)cc1`, the relative growth is inactive: 1.05. The value for `C[C@@H]1Cn2nncc2CO1` was inactive: 1.01; that for `COCC(=O)Nc1ccc2c(c1)OC[C@H](C)N(Cc1cccc(F)c1)C[C@H](C)[C@H](OC)CN(C)C2=O` was inactive: 0.987; that for `C[C@@H]1CN([C@@H](C)CO)C(=O)c2cc(NC(=O)C3CCCCC3)ccc2O[C@@H](C)CCCCO[C@H]1CN(C)Cc1ccncc1` was inactive: 0.992. As to `CCc1nc2ccc(C(=O)Nc3cc(-c4ccccc4)ccc3OC)cn2c1N(C)C(=O)Cc1ccccc1`, the relative growth is inactive: 1.04. For the molecule `Cc1ccccc1S(=O)(=O)N1C[C@H](O)COC[C@@H]2O[C@H](CC(=O)NCc3ccccc3Cl)CC[C@H]21`, the relative growth was inactive: 1.01. Regarding `C[N+](C)(C)CCCC[C@@H]1NC(=O)[C@H]2C[C@@H](C(=O)NCCCCCCNC(=O)CS)[C@@H](c3ccc(O)cc3)N2C1=O`, the relative growth was inactive: 0.955. As to `CN(C)c1nc(NCCO)c2cnn(C)c2n1`, the relative growth is inactive: 0.994. Turning to `CCCNC(=O)C[C@H]1CC[C@H]2[C@@H](COC[C@@H](O)CN2S(=O)(=O)c2ccc(Oc3ccccc3)cc2)O1`, the relative growth was inactive: 0.997. The value for `Cc1noc(C)c1NC(=O)Nc1ccc2c(c1)CC(=O)N([C@@H](C)CO)C[C@@H](C)[C@@H](CN(C)S(=O)(=O)c1ccccc1)O2` was inactive: 0.995; that for `C[C@@H]1CCCCO[C@H](CN(C)C(=O)C2CCCCC2)[C@@H](C)CN([C@H](C)CO)C(=O)c2cc(NC(=O)Cc3ccccc3)ccc2O1` was inactive: 1.03; that for `Cc1noc(C)c1NC(=O)N(C)C[C@@H]1Oc2ccc(NS(C)(=O)=O)cc2C(=O)N([C@H](C)CO)C[C@H]1C` was inactive: 1.02. With `Cc1noc(C)c1NC(=O)N(C)C[C@H]1OCCCC[C@@H](C)Oc2ccc(NS(=O)(=O)c3cccs3)cc2C(=O)N([C@H](C)CO)C[C@@H]1C`, the relative growth is inactive: 0.982.

Take `COc1ccc2cc1/C=C\NC(=O)[C@H](Cc1ccccc1)NC(=O)[C@@H]1[C@H](CCN1C(=O)[C@@H](NC(=O)[C@@H](C)N(C)C)C(C)C)O2`: the relative growth is inactive: 1. Turning to `C[C@@H]1CN([C@H](C)CO)C(=O)c2cc(NC(=O)C3CCCCC3)ccc2O[C@H]1CN(C)Cc1ccc(-c2ccccc2)cc1`, the relative growth was inactive: 1.05. The value for `C[C@@H]1CCCCO[C@H](CN(C)C(=O)Nc2ccccc2)[C@H](C)CN([C@@H](C)CO)C(=O)c2cc(NS(=O)(=O)c3ccc(F)cc3)ccc2O1` was inactive: 1.03. As to `C=CCN1C(=O)[C@@]2(O[C@@H](CCn3cc([C@H](O)c4ccccc4)nn3)[C@H]([Si](C)(C)c3ccc(OC)cc3)[C@H]2C)c2ccccc21`, the relative growth is inactive: 1.03. `C[C@H]1CN([C@@H](C)CO)S(=O)(=O)c2ccc(-c3cccnc3)cc2O[C@@H]1CN(C)CC1CCOCC1`: the relative growth was inactive: 1.02.

As to `COc1ccc(NC(=O)Nc2cccc3c2O[C@H](CN(C)Cc2ccc(C(F)(F)F)cc2)[C@H](C)CN([C@H](C)CO)C3=O)cc1`, the relative growth is inactive: 1.02.

Regarding `O=C(C[C@@H]1C=C[C@@H](NC(=O)c2cnccn2)[C@@H](CO)O1)NCc1ccccc1F`, the relative growth is inactive: 0.988. The value for `C[C@@H]1CN([C@H](C)CO)C(=O)Cc2cc(NC(=O)Cc3ccccc3)ccc2O[C@H]1CN(C)Cc1ccc(C(F)(F)F)cc1` was inactive: 1.08; that for `CN(C)CC(=O)N1[C@@H](CO)[C@@H](c2ccc(C3=CCCC3)cc2)C12CN(S(=O)(=O)Cc1ccccc1)C2` was inactive: 1; that for `C[C@H]1CN([C@@H](C)CO)C(=O)Cc2cc(NC(=O)Nc3ccc(C(F)(F)F)cc3)ccc2O[C@@H]1CN(C)Cc1ccc(C(=O)O)cc1` was inactive: 0.989. As for `CC(=O)OCC[C@H](C)CCC=C(C)C`, the relative growth is inactive: 0.982. Regarding `COC1=C(OC)C(=O)C(CCCCCCCCCC[P+](c2ccccc2)(c2ccccc2)c2ccccc2)=C(C)C1=O`, the relative growth was active: 0.0727. On to `C[C@H]1CN([C@@H](C)CO)C(=O)Cc2cc(NC(=O)Cc3ccccc3)ccc2O[C@H]1CN(C)C(=O)Nc1cccc2ccccc12`, for which the relative growth was inactive: 1.

As for `Cc1cn([C@H]2C=C[C@@H](CO)O2)c(=O)[nH]c1=O`, the relative growth was inactive: 0.685. Take `Cc1ccc(S(=O)(=O)N(C)C[C@@H]2Oc3ccc(NC(=O)C4CC4)cc3C(=O)N([C@H](C)CO)C[C@H]2C)cc1`: the relative growth is inactive: 1.02. For the molecule `CCCN1C[C@H](C)[C@@H](OC)CN(C)C(=O)c2cc(NS(=O)(=O)c3cn(C)cn3)ccc2OC[C@H]1C`, the relative growth was inactive: 1.04. The value for `Cc1ccc(S(=O)(=O)Nc2cccc3c2O[C@@H](CN(C)S(=O)(=O)c2ccc(F)cc2)[C@H](C)CN([C@H](C)CO)C3=O)cc1` was inactive: 1.01; that for `C[C@@H]1CN([C@H](C)CO)C(=O)Cc2cc(NC(=O)Cn3cnnn3)ccc2O[C@@H]1CN(C)Cc1ccc(C(F)(F)F)cc1` was inactive: 1.02. With `C[C@@H]1CN([C@@H](C)CO)C(=O)c2cccc(NC(=O)Nc3ccc(C(F)(F)F)cc3)c2O[C@H]1CN(C)Cc1ccc(C(F)(F)F)cc1`, the relative growth was inactive: 0.977.

`NC(=S)Nc1ccc(S(N)(=O)=O)cc1`: the relative growth was inactive: 1.04. Regarding `O=C(C[C@@H]1CC[C@H]2[C@@H](COC[C@H](O)CN2C(=O)Nc2ccc(Cl)c(Cl)c2)O1)NCc1ccncc1`, the relative growth was inactive: 0.921. The result for `COc1ccc(S(=O)(=O)Nc2ccc3c(c2)C(=O)N([C@@H](C)CO)C[C@H](C)[C@@H](CN(C)C(=O)Nc2cccc4ccccc24)OCCCC[C@@H](C)O3)cc1` reads inactive: 1.02; that for `C[C@H]1CN([C@@H](C)CO)C(=O)c2cc(C#CCN(C)C)cnc2O[C@H]1CN(C)Cc1ccc(C(=O)O)cc1`, inactive: 0.973; that for `C[C@H]1CN([C@@H](C)CO)C(=O)c2cc(-c3ccc(C(=O)N(C)C)cc3)cnc2O[C@@H]1CN(C)C(=O)c1ccncc1`, inactive: 0.987. On to `C[C@H](CO)N1C[C@H](C)[C@@H](CN(C)C(=O)CCC(F)(F)F)OCCCC[C@H](C)Oc2ccc(NC(=O)Nc3ccccc3)cc2C1=O`, for which the relative growth is inactive: 1.02. On to `C[C@H]1CN([C@@H](C)CO)C(=O)c2cc(C#CC3CCCCC3)cnc2O[C@H]1CN(C)C(=O)Cc1ccccn1`, for which the relative growth was inactive: 0.977. As to `COc1ccc(NC(=O)Nc2ccc3c(c2)[C@H]2C[C@H](CC(=O)NCc4ccncc4)O[C@@H](CO)[C@H]2O3)cc1`, the relative growth is inactive: 0.994. The result for `Cc1noc(C)c1S(=O)(=O)Nc1ccc2c(c1)C(=O)N([C@H](C)CO)C[C@H](C)[C@@H](CN(C)S(=O)(=O)c1cn(C)cn1)O2` reads inactive: 1.01. With `O=C(C[C@@H]1C[C@H]2c3cc(NC(=O)c4ccc5c(c4)OCO5)ccc3O[C@H]2[C@H](CO)O1)NCC(F)(F)F`, the relative growth was inactive: 1.02. For the molecule `C[C@H](CO)N1C[C@H](C)[C@H](CN(C)S(=O)(=O)c2ccccc2)Oc2c(NC(=O)c3cnccn3)cccc2C1=O`, the relative growth was inactive: 0.987. As for `C[C@H]1CN([C@@H](C)CO)C(=O)Cc2cc(NS(=O)(=O)c3ccccc3)ccc2O[C@H]1CN(C)Cc1ccc(-c2ccccc2)cc1`, the relative growth was inactive: 1.02. Regarding `C[C@@H]1CN([C@H](C)CO)C(=O)c2cc(NC(=O)CCC(F)(F)F)ccc2O[C@H]1CN(C)C(=O)Nc1cccc2ccccc12`, the relative growth was inactive: 0.969. Turning to `COc1ccc(S(=O)(=O)Nc2ccc3c(c2)C(=O)N([C@@H](C)CO)C[C@H](C)[C@H](CN(C)C(=O)Nc2c(C)noc2C)OCCCC[C@H](C)O3)cc1`, the relative growth is inactive: 1.03. Consider `COc1ccc(S(=O)(=O)Nc2ccc3c(c2)C(=O)N([C@H](C)CO)C[C@H](C)[C@H](CN(C)C(=O)C2CCCCC2)OCCCC[C@H](C)O3)cc1`, for which the relative growth is inactive: 1.02. For `C[C@H](CO)N1C[C@H](C)[C@@H](CN(C)S(=O)(=O)c2cn(C)cn2)OCCCC[C@H](C)Oc2ccc(NC(=O)CCCN(C)C)cc2C1=O`, the relative growth was inactive: 0.978. Consider `N#Cc1ccc(NCCNC(=N)N)nc1`, for which the relative growth was inactive: 0.98. Regarding `C[C@H](CO)N1C[C@H](C)[C@H](CN(C)Cc2ccncc2)OCCCC[C@H](C)Oc2ccc(NC(=O)Cc3ccccc3)cc2C1=O`, the relative growth is inactive: 1.04. As to `N[C@@H](C(=O)O)c1ccc(C(=O)O)c(O)c1`, the relative growth was inactive: 0.982.

For the molecule `O=C1CCOCCN1`, the relative growth is inactive: 1.

`CO[C@H]1CN(C)C(=O)c2cc(NS(=O)(=O)c3cn(C)cn3)ccc2OC[C@H](C)N(Cc2cccc(F)c2)C[C@@H]1C`: the relative growth was inactive: 1.01. As to `C[C@@H]1CN([C@H](C)CO)C(=O)c2cccc(NC(=O)CCCCCC(=O)Nc3ccccc3N)c2O[C@@H]1CN(C)C(=O)Nc1ccc(F)cc1`, the relative growth is inactive: 1.01. For the molecule `O=[N+]([O-])c1cncn1CCN1CCOCC1`, the relative growth was inactive: 0.978.

Turning to `C[C@@H]1CN([C@H](C)CO)C(=O)c2cc(NC(=O)Cc3cn(C)c4ccccc34)ccc2O[C@@H]1CN(C)Cc1ccc(Oc2ccccc2)cc1`, the relative growth is inactive: 0.975.
